In publication PMC6919601, “Identification of Plasmodium dipeptidyl aminopeptidase allosteric inhibitors by high throughput screening” (PLoS ONE, 2019):
Among all 110,000 compounds or so, about 230 (0.21%) showed an effect of 50% or more. Some of the results follow.

Each molecule was assayed against DPAP1 (Plasmodium falciparum, UniProt Q8IIJ9) (assay: primary screen, percent inhibition; read by cleavage of a fluorogenic dipeptide substrate; higher = more effect of the substance).
Parameters: species or system P. falciparum D10 trophozoite lysates; single well
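Further: 30 min substrate incubation versus DMSO and 10 µM JCP410 controls.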

Chain of DPAP1 (Q8IIJ9 whole entry, looked up): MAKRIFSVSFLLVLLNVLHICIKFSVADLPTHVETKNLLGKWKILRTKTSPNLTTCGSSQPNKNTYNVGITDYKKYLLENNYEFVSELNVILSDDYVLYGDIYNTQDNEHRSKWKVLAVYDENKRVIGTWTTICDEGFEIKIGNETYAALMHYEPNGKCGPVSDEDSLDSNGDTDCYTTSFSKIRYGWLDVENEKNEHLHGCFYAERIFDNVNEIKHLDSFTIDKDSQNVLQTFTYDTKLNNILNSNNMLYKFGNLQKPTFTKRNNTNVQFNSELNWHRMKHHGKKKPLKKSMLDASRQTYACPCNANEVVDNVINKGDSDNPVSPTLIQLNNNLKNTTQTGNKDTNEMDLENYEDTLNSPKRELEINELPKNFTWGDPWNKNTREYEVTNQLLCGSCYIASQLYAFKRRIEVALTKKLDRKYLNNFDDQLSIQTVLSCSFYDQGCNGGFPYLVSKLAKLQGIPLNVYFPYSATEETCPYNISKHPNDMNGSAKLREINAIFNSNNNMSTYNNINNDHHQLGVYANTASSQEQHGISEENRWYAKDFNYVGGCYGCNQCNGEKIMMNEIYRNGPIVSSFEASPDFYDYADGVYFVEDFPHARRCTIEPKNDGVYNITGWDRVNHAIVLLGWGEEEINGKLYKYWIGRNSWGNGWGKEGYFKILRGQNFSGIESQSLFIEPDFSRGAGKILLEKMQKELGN

Row | SMILES | % Inhibition @ 10 uM [%]
1 | COc1ccc(S(=O)(=O)NCc2ccco2)cc1-c1nnc2c3ccccc3c(C)nn12 | -4.78
2 | c1ccc(N2CCN(c3ccccn3)CC2)nc1 | -3.77
3 | Cc1cc(O)n2nc(C)c(-c3ccc(Cl)cc3)c2n1 | 0.0538
4 | Cc1sc(NC(=O)COc2ccc(Cl)cc2Br)c(C(N)=O)c1C | 3.21
5 | COc1ccc(-c2cn3c(C)c(C(=O)N4CCC(C(N)=O)CC4)sc3n2)cc1 | 4.77
6 | CC1(C)CC(=O)c2c(/C=C/c3ccccc3)n[nH]c2C1 | -0.902
7 | COc1ccc2nc3sc(C(=O)NCCN4CCOCC4)cc3cc2c1 | 3.07
8 | Cc1occc1C(=O)Nc1ccc(N(C)C)cc1 | -1.2
9 | CCOC(=O)c1c(C)[nH]c(C)c1S(=O)(=O)N(C)CC(=O)N1CCN(Cc2ccccc2)CC1 | -0.695
10 | Cc1cc(C)c2c(NC(=O)CN3CCCCC3)c(C)sc2n1 | -5.54
11 | COc1cc(-c2nc3ccccn3c2/N=C/c2sccc2C)ccc1O | 15.9
12 | Cc1ccc(-n2ncc(C(=O)O)c2C2CCNCC2)c(C)c1 | -1.03
13 | NC(=O)c1c(NC(=O)c2ccncc2)sc2c1CCCCC2 | 0.618
14 | CCOC(=O)NC(=O)CSc1nc(C)cc(C)c1C#N | -2.14
15 | COc1ccc(NS(=O)(=O)c2ccc(NC(=O)C(F)(F)F)cc2)cc1 | -1.88
16 | Oc1nc(Nc2cccc3ccccc23)nc(N2CCOCC2)n1 | -0.267
17 | Cn1c(=O)c2c(nc(CN3CCN(C(=O)c4ccco4)CC3)n2CCCc2ccccc2)n(C)c1=O | 5.21
18 | CN1C(=O)/C(=C2\SC(Nc3ccc(Br)cc3)=NC2=O)c2ccccc21 | -1.36
19 | CC(CNC(=O)C1CCCN(C(=O)c2cc3sccc3n2C)C1)c1ccccc1 (stereo not drawn) | -1.53
20 | CC1CCCCN1C(=O)c1cc(-c2ccc(Cl)c(Cl)c2)on1 (stereo not drawn) | -3.12
21 | Cc1ccc(S(=O)(=O)N2CCN(C(c3ccccc3)c3ccccc3)CC2)cc1C | -3.14

Row | SMILES | % Inhibition @ 10 uM [%]
22 | COc1ccccc1OCCCSc1nc(-c2ccccc2)nc2cc(=O)[nH]n12 | -8.11
23 | CC/C(=N\CCCO)C1=C(O)CC(C)(C)CC1=O | -0.996
24 | O=C(CC1Sc2ccccc2NC1=O)Nc1ccc(Cl)cc1 (stereo not drawn) | 1.94
25 | COc1ccc(C2=C/C(=C/c3ccc(C)c(OC)c3)C(=O)O2)c(OC)c1 | 1.52
26 | COc1ccccc1CNC(=O)c1cc(Cl)ccc1OC | -5
27 | COC(=O)c1ccc(CN2CCSCC2)cc1 | 3.15
28 | Cn1cc(Br)c(C(=O)Nc2nc3ccccc3n2CCN2CCOCC2)n1 | 3.44
29 | COc1ccccc1C1CC(c2ccc(Br)cc2)=NN1c1ccc(Br)cc1 (stereo not drawn) | 0.716
30 | CCc1cc2c(cc3c(=O)n(CC(=O)NCCCN4CC(C)CC(C)C4)ncn32)s1 (stereo not drawn) | 9.22
31 | CC(C)c1ccc(/C=N/n2cnnc2)cc1 | 13
32 | CC[C@@H](C)[C@H](NC(=O)c1cccc(NC(N)=O)c1)C(=O)N[C@@H](CCc1ccccc1)C(=O)COCc1ccccc1 | -7.36
33 | O=C(Cn1ncc2c1-c1ccccc1OC2)N1CC=C(c2ccccc2)CC1 | 2.6
34 | CC(C)CC(=O)Nc1cccc(NC(=O)CC(C)C)n1 | 0.907
35 | COc1cccc(-c2cnc(OC(C)(C)C)nc2OC(C)(C)C)c1 | 2.22
36 | CCC(C(=O)NCCc1ccccc1Cl)n1nc(C)c2sc3ccccc3c2c1=O (stereo not drawn) | -3.53
37 | Cc1ccc(C(=O)C2CN3CCC2CC3)cc1 (stereo not drawn) | 3.74
38 | COc1ccc(NC(=O)CSC2=N/C(=C/c3cccc(F)c3)C(=O)N2C)cc1 | 5.83
39 | O=C(O)CN(CCCc1ccccc1)CC(=O)O | 2.81
40 | COc1ccc(Cl)cc1C(=O)Nc1c(F)cccc1F | -0.469
41 | CCOc1cc(C(=O)Nc2nc3c(s2)CCCC3)cc(OCC)c1OCC | 0.583
42 | O=C(CSCC(=O)N1CCCC1)Nc1ccc(F)cc1 | 2.76

Row | SMILES | % Inhibition @ 10 uM [%]
43 | Cc1ccc(S(=O)(=O)n2cnc(-c3ccccc3)c2-c2ccccc2)cc1 | -2.91
44 | Cc1cc(C)c(NC(=O)CN2CCN(Cc3ccccc3)CC2)c(C)c1 | 3.47
45 | COc1cccc(N2CCN(C3CC(=O)N(c4cccc(C(F)(F)F)c4)C3=O)CC2)c1 (stereo not drawn) | 3.17
46 | CSc1nn(Cc2ccc(F)cc2)c(N)c1S(=O)(=O)c1ccccc1 | 0.0575
47 | COc1ccc(N2CCN(C(=O)CN(c3cccc(C)c3)S(C)(=O)=O)CC2)cc1 | 9.03
48 | CCc1nn(CC(=O)NC(C)c2ccc3c(c2)OCCO3)c(=O)c2cc3sccc3n12 (stereo not drawn) | -1.58
49 | COc1cc(C2Cc3c(C(=O)O)c(=O)cc(C)n3-c3ccccc3S2)ccc1O (stereo not drawn) | 2.33
50 | COc1cccc(C2NC(=O)NC(C)=C2C(=O)Nc2cccc(Cl)c2)c1 (stereo not drawn) | 1.27
51 | Cc1cc2oc(C(=O)NCc3ccccc3)cc(=O)c2cc1C | -3.24
52 | N#Cc1c(O)nc(S)nc1-c1ccccc1O | 6.4
53 | CC(C)(O)C#Cc1ccc(C(=O)N2CCN(c3ccccc3Cl)CC2)cc1 | 0.392
54 | CC(C)OCCCNC(=O)C1CCCN(S(C)(=O)=O)C1 (stereo not drawn) | 2.18
55 | CCO/C(O)=C1/C(C)=NC2=C(C(=O)CCC2)C1c1ccc(N(CC)CC)cc1 (stereo not drawn) | -1.75
56 | CCOC(=O)c1c(-c2ccc(OC)cc2)nc2nonc2c1N | 2.99
57 | COc1ccc(C2CC3=NC(C)=C(C(=O)OC(C)C)C(c4ccc(OC)c(OC)c4)C3=C(O)C2)cc1 (stereo not drawn) | 19.4
58 | COc1ccc(/C=C2\SC(=O)N(CC(=O)Nc3ccc(F)cc3)C2=O)cc1O | 4.57
59 | CC1CCc2c(sc(NC(=O)CN3CCN(C)CC3)c2C#N)C1 (stereo not drawn) | 3.96
60 | Cc1ccccc1Nc1nc(-c2ccc(Cl)cc2)cs1 | 1.72
61 | Cc1ccc(C=C2C(=O)c3ccccc3C2=O)o1 | -2.18
62 | CCCCOc1ccc(C(=O)N(Cc2sccc2C)C2CCS(=O)(=O)C2)cc1 (stereo not drawn) | -1.11
63 | CC(C)CC(C(=O)NCC#N)c1cccc(-c2ccc(OC3CCN(C(=O)OC(C)(C)C)CC3)cc2)c1 (stereo not drawn) | -1.61
